According to ChEMBL document CHEMBL4888484, “Replenishing the malaria drug discovery pipeline: Screening and hit evaluation of the MMV Hit Generation Library 1 (HGL1) against asexual blood stage Plasmodium falciparum ,using a nano luciferase reporter read-out” (2022):
The whole screen tested about 150,000 compounds, of which about 540 (0.36%) showed an effect of 50% or more. The list shows a part of the results.

Test system: Plasmodium falciparum
Assay: Primary screen in NF54 nanoGlo assay, in single point, at 2uM, 72h; a lower Z score goes with more inhibition
Assay type: functional, Erythrocyte
Settings: timepoint 72 hour

Row | Compound | % Inhibition [%] | Z score
1 | O=C(NCc1cc[nH]n1)Nc1cn[nH]c1 | -9 | 1.39
2 | COCCn1c(C)cnc1CC1CCN(C(=O)c2cnccn2)CC1 | 9 | -1.74
3 | Nc1cc(-c2ccc3c(c2)OCO3)ccn1 | -17 | 2.25
4 | C[C@@H](NCCCn1ccnc1)c1ccc(Cl)cc1 | -4 | 0.5
5 | N#Cc1c(N2CC[C@H](OCCN3CCCCC3)C2)nc2ccccn12 | -8 | 1.05
6 | CCOc1ccc(-c2c[nH]c(-c3cncn3C)n2)cc1OCC | -11 | 2.07
7 | CN1CCCN(C[C@@H]2CN(c3cccc(C(F)(F)F)n3)C[C@@H]2CO)CC1 | 0 | 0.03
8 | Cc1ccsc1-c1nccn1[C@H]1CS(=O)(=O)C[C@@H]1O | -10 | 1.49
9 | CN(C(=O)c1cn(C)cn1)C1CN(c2ccc3nncn3n2)C1 | 1 | -0.11
10 | COCCNC(=O)NC(Cc1ccc2c(c1)OCO2)Cc1ccc2c(c1)OCO2 | -8 | 1.54
11 | Cn1cc(Nc2ccc(C3CC3)nn2)cn1 | 3 | -0.62
12 | c1cc2c(cc1CN1CCNCC1)CCC2 | -5 | 0.6
13 | COc1cccc(-c2nc3c(s2)CN(C(=O)Nc2cc(C)cc(C)c2)CC3)c1 | 2 | -0.21
14 | N#Cc1ncn(CCN2C(=O)c3ccccc3C2=O)c1C#N | -8 | 1.14
15 | CCOc1ccc(Cc2nc(-c3oc4ccc(C)cc4c3C)no2)cc1OCC | -1 | 0.17
16 | Cc1ccc2nc(C(=O)N3CC(c4ccncc4)C3)c(F)n2c1 | -20 | 1.9
17 | COc1ccc(CN2CCC(c3cc[nH]n3)CC2)cn1 | 7 | -1.26
18 | O=C(c1cc(-c2cccc(Cl)c2)n[nH]1)N(CCN1CCCC1)C1CCOCC1 | 1 | -0.08
19 | C[C@H]1CCCCN1C(=O)CN1CCN(c2cc(Br)cnc2C(N)=O)CC1 | -7 | 0.71
20 | Cc1cc(Cn2ccnc2-c2[nH]cnc2C)on1 | 8 | -1.49
21 | CCc1nc(N[C@H]2COCC[C@@H]2Oc2ccc(CO)cc2)ncc1C | -6 | 0.96
22 | CO[C@H](c1nc(Cc2ccc3[nH]ncc3c2)no1)C1CC1 | -41 | 4.82

Row | Compound | % Inhibition [%] | Z score
23 | O=C(NCc1ccccn1)c1c[nH]nc1-c1ccccc1 | -12 | 1.59
24 | O=C(c1ccc(-c2cn(-c3ccccc3)cn2)cc1)N1CCOC[C@@H](O)C1 | 5 | -0.8
25 | Cc1ccc(C(=O)NCc2cc(COC(C)(C)C)on2)nc1C | -9 | 1.39
26 | CCCn1c(C(=O)NCc2ccncc2)cc2cc(NS(=O)(=O)c3ccc(Cl)cc3)ccc21 | -8 | 0.98
27 | CCCc1csc(-c2cc(N)ccn2)n1 | -22 | 2.32
28 | Oc1c(-c2n[nH]c(C(F)(F)F)c2-c2cnn(-c3ccccc3)c2)ccc2c1OCCO2 | 11 | -1.41
29 | C[C@H](O)CN(C(=O)c1cc(F)cc2ccoc12)C1CC1 | -1 | 0.19
30 | c1c(N2CCCCC2)c2nonc2c2nonc12 | -16 | 1.43
31 | COc1ccccc1-n1nc(CN(C(=O)c2cccs2)C(C)C)c2c1CCN(Cc1ccccc1F)C2 | -7 | 0.92
32 | Cc1cc(Cl)c2c(c1)[C@@H](NCCn1cc(C)cn1)CCCO2 | -10 | 1.45
33 | COc1cccc(Oc2nc(N3CCN(C)CC3)nc3c2CN(C(=O)Nc2ccccc2)CC3)c1 | 33 | -0.83
34 | O=C(Cc1n[nH]c(=O)c2ccccc12)N1CCc2ccccc2C1 | -2 | 0.28
35 | NC(=O)c1ccnc(Oc2ccccc2CN2CCCCC2)c1 | -15 | 1.68
36 | O=C(c1cccc(-c2ccccc2O)c1)N1CCCN(C2CCCC2)CC1 | 0 | 0.04
37 | COCCC[C@H]1CCCCN1S(=O)(=O)c1cc(-c2ccno2)ccc1C | 9 | -1.26
38 | CCOC1CCN(C(=O)c2nc3cccnc3[nH]2)CC1 | -10 | 1.26
39 | COc1cccc(N2CCN(S(=O)(=O)c3cc(-c4cc(C)no4)ccc3OC)CC2)c1 | 1 | -0.12
40 | Cc1cccc(NC(=O)Cn2cnc3c(nnn3C)c2=O)c1 | -14 | 2.23
41 | C[C@@H](CNC1CCN(c2ccc(F)c(F)c2)CC1)Oc1cccnc1 | -1 | 0.17
42 | Cc1nc(-c2cc3ccccc3nc2N2CCN(Cc3ccccc3)CC2)no1 | -7 | 1.32
43 | Cc1nc(CNc2cc(F)c(F)cc2F)no1 | 2 | -0.2
44 | Cc1cccc(CN(C)CCc2c(C)n[nH]c2C)n1 | 7 | -0.83

Row | Compound | % Inhibition [%] | Z score
45 | CC(C)CC(=O)NCc1nnc(C(=O)Nc2ccc3c(c2)OCO3)s1 | -7 | 1.21
46 | C[C@@H](Cc1ccc(F)cc1)NS(=O)(=O)CCCF | -11 | 1.01
47 | CCOCC(=O)Nc1ccc(C(C)=O)c(Cl)c1 | 38 | -5.13
48 | COc1cccc(-n2cc(-c3ccc(Cl)cc3)nc2NC(=O)CN(C(C)C)S(=O)(=O)c2ccc(Cl)cc2)c1 | -16 | 2.39
49 | COc1ccc(CN2CCN(Cc3nc(C(=O)NCc4ccco4)co3)CC2)cc1 | 1 | -0.08
50 | Cc1cc(-n2cncn2)ccc1C(=O)OCCn1cncn1 | -13 | 1.12
51 | COc1ccc(CNC(=O)c2nn(-c3ccc(F)cc3)c3ccccc3c2=O)cc1OC | -5 | 0.92
52 | c1cncc(-n2cccc2[C@@H]2NCCc3[nH]cnc32)c1 | -4 | 0.33
53 | O=C(N[C@@H]1COc2c(F)cc(F)cc2C1)c1ccc(Cn2cc(Cl)cn2)s1 | -6 | 0.89
54 | CN(C)c1ccc(NC(=O)Cc2noc3ccccc23)nc1 | 1 | -0.14
55 | Cc1ccc(F)cc1C(=O)N[C@H]1CCCc2c1ccc(=O)n2C | 0 | 0.01
56 | COc1ccc(CN2CCN3CCC[C@H]3C2)c(OC)c1OC | -17 | 2.06
57 | COC(=O)CCS(=O)(=O)N1CCCC1 | -6 | 0.85
58 | COc1ccccc1-c1cc(C(F)(F)F)n2ncc(C(=O)OCCc3c(C)noc3C)c2n1 | -5 | 0.73
59 | OCC1(O)CCN(c2nccc(C3CCCC3)n2)CC1 | -3 | 0.51
60 | Cc1csc(C(C)CN=C(N)N2C[C@@H](C)O[C@@H](C)C2)n1 (some centres undefined) | -13 | 2.15
61 | CN1CCC[C@@]2(CCN(C(=O)CCn3cc(Cl)cn3)C2)C1 | 1 | -0.1
62 | Cc1cc(C(=O)Nc2c(C)cccc2C)c2c(C)nn(-c3cccc(Cl)c3C)c2n1 | 6 | -0.8
63 | CC(C)CCN(CCC#N)C(=O)[C@@H]1CC=CCC1 | -12 | 1.26
64 | CC[C@H](C)NC(=O)c1ccc(-c2c(C)n[nH]c2C)o1 | 2 | -0.36
65 | O=C(c1ccsc1)N1CCN(S(=O)(=O)c2ccc(F)cc2)CC1 | -3 | 0.62
66 | CCC1(S(=O)(=O)NC(=O)[C@H]2CCCC2(C)C)CC1 | 12 | -1.2

Row | Compound | % Inhibition [%] | Z score
67 | Cc1ccc2c(c1)N(Cc1nc(C)cs1)CCCO2 | -3 | 0.59
68 | CC(C)(c1nc(C[C@H]2CCC3(CCOCC3)CO2)no1)C(F)F | -5 | 0.74
69 | C#CCn1cc(CNc2nc(CC(C)C)ns2)cn1 | -23 | 2.68
70 | Cc1nc([C@H](C)n2ccnc2-c2cc(C(C)(C)C)[nH]n2)cs1 | -9 | 1.17
71 | CC(=O)C[C@H](C)NC(=O)c1cncc(C)c1 | -14 | 2.3
72 | COCCN1[C@@H]2CCN(Cc3ccccc3C#N)C[C@@]2(C(=O)N2CCOCC2)CCS1(=O)=O | -9 | 1.34
73 | Cc1cccc(-c2nc(-c3cccnc3)nn2C2CCN(C)CC2)n1 | -6 | 0.98
74 | N=C(NOS(=O)(=O)c1ccc(Cl)cc1)c1ccncc1 | -6 | 0.83
75 | O=C(C1CCCC1)N1CCCC[C@H]1c1noc(COCc2ccccc2)n1 | -5 | 0.66
76 | O=C(Nc1ccccc1-n1cncn1)[C@@H]1CC=CCC1 | 4 | -0.58
77 | Cc1cccc(CCNc2nc3c(s2)c(C)nn3C)n1 | -1 | 0.25
78 | Cc1ccc2ncnc(N3CCS(=O)(=O)C[C@@H](C)C3)c2c1 | -9 | 0.97
79 | Cc1nn(C2CCS(=O)(=O)C2)c2c1C(c1cccc(OC(F)F)c1)CC(=O)N2 (centres undefined) | -13 | 1.63
80 | O=C(NCc1ccc(C2CC2)nc1)c1ccc(F)cc1 | -4 | 0.48
81 | CCc1ccccc1NC(=O)CN(C)CC(=O)Nc1cc(C(C)(C)C)no1 | -5 | 0.4
82 | CCOc1cccc(C(=O)N2CC3CN(c4ccccc4)CC3C2)c1 (centres undefined) | 6 | -1.22
83 | CC(C)(C)c1nsc(NCC2(C(N)=O)CCOCC2)n1 | -13 | 1.5
84 | c1ccc2oc(N[C@H]3COC[C@@H]3N3CCCC3)nc2c1 | 2 | -0.32
85 | COCCN1CCC[C@@H]1CNC(=O)Nc1cccc(F)c1 | -2 | 0.23
86 | CC[C@H](C)[C@@H](C(=O)Nc1nc(CC(=O)NC)cs1)n1cnnn1 | -11 | 1.41
87 | O=C(c1nccs1)c1cccnc1N1CCn2nc(CO)cc2C1 | -2 | 0.31
